According to the supplement of paper PMC8728848:
Many of the other results were omitted from the sample, so the strongest signals are more common in it than they were.

System: Gal(b1-4)GlcNAc(b1-6)Gal(b1-4)GlcNAc
Assay: glycan array binding signal (z-score within array); higher = stronger binding
Conditions: glycan notation: IUPAC condensed, linker removed
Procedure, shortened: (§1)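 Negative Z-scores can be read as non-binding. The Z-score is calculated within each array and then averaged across arrays of one protein sequence at different concentrations or buffers and across linkers. Arrays, 3228 in all, were curated from the Consortium for Functional Glycomics database and kept only where the protein sequence was available.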

Going from “L-Ficolin (Homo sapiens) (chain not printed)” to “NCAM1 (Homo sapiens) (chain not printed)”, the “glycan array binding signal (z-score)” value rises from -0.467 to -0.082.

For “Thrombomodulin Extracellular (Homo sapiens) (chain not printed)”, the “glycan array binding signal (z-score)” value was -0.428.

System: Gal(b1-4)GlcNAc
Assay: as above
Conditions: glycan notation: IUPAC condensed, linker removed
Procedure, shortened: as §1

Compared with “Collectin K1 (Homo sapiens) (chain not printed)”, “M-Ficolin (Homo sapiens) (chain not printed)” is lower in “glycan array binding signal (z-score)” value: -0.202 for the first, -0.285 for the second.

With “Thrombomodulin Extracellular (Homo sapiens) (chain not printed)” the “glycan array binding signal (z-score)” value was -0.149.

System: Gal3S(b1-3)GalNAc
Assay: as above
Conditions: glycan notation: IUPAC condensed, linker removed
Procedure, shortened: as §1

Going from FGF2 (chain not printed) to “Gal 8-short (Homo sapiens) (chain not printed)”, the “glycan array binding signal (z-score)” value rises from -0.441 to 1.77.

For “Galectin-8 C-terminal CRD (Homo sapiens) (chain not printed)”, the “glycan array binding signal (z-score)” value was 0.203.
